Data as given in PubChem BioAssay AID2675 (National Center for Advancing Translational Sciences (NCATS), 2010).
About 100 (0.036%) of roughly 280,000 compounds were called active. Inconclusive results, whose numbers are uncertain, are shown with a selection of clear calls. Calls come from the whole dose curve; as a rule, active = well fitted inhibition curve with a large enough effect in the signal ratio, with a control signal flat (not every such curve was filed as active); inconclusive = small, poorly fitted or top-dose-only effect, or effect the other way, or a change in a side signal; inactive = no such curve, though single readings can be large or run the other way; the % refers to the signal ratio. Potencies beside an inconclusive call are fits to weak or partial responses and may not hold up. “Side channel” marks fits to a control or component signal instead of the main read-out.

Each molecule was assayed against Muscleblind-like protein 1 (Homo sapiens) (UniProt Q9NR56) (assay: qHTS Assay for Inhibitors of MBNL1-poly(CUG) RNA binding). Details: TR-FRET MBNL1-His/biotin-(CUG)12 binding, 665/545 ratio; series mostly up to 57.5 µM.
In short: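 Ratiometric TR-FRET (665 over 545 nm, excitation 340 nm) tracks disruption of MBNL1-His/biotin-(CUG)12 complex after 60 min at room temperature, with compounds at 92 nM to 58 uM final.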
Potency is the fitted concentration of half-maximal effect; tags give direction and shape of the fitted curve or compound fluorescence and quenching.

Sequence of UniProt Q9NR56 (Q9NR56 whole entry, looked up): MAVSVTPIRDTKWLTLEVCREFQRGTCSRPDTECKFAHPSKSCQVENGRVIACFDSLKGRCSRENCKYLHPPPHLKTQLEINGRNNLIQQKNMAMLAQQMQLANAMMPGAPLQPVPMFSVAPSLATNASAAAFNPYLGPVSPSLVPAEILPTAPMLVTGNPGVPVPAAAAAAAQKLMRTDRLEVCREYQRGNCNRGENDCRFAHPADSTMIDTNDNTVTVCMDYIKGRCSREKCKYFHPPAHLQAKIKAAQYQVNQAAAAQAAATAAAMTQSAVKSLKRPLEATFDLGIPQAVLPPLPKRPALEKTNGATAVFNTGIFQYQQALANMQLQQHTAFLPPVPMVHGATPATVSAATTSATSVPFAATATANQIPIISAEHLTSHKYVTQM

Q: Which Potency does the source give for Cc1sc2ncnc(N/N=C/c3cccc(O)c3)c2c1C here?
A: inconclusive: 28.2 µM [quencher, side channel, single point]

Q: With O=C(NCCCSc1ccccc1)c1cc(Br)ccc1O as the molecule, how does the Potency read?
A: inconclusive: 22.4 µM [quencher, side channel, partial curve]

Q: How did the Potency turn out when COc1cccc(NC(=O)c2ccc(C(=O)c3ccccc3)o2)c1 was run?
A: inconclusive: 14.1 µM [quencher, side channel, partial curve]

Q: Which Potency does the source give for COc1cccc(-c2csc(N3CCN(C(=S)Nc4cccc(C)c4)CC3)n2)c1 here?
A: inactive

Q: With COC(=O)c1cn(NC(=O)c2ccc(OC)c([N+](=O)[O-])c2)c(=O)c2ccccc12 as the molecule, how does the Potency read?
A: inconclusive: 28.2 µM [quencher, side channel, partial curve]

Q: With Nc1c([N+](=O)[O-])c(=O)sc2ccccc12 as the molecule, how does the Potency read?
A: inconclusive: 3.55 µM [quencher, side channel, full curve]

Q: Which Potency does the source give for O=S(=O)(CCN(CCS(=O)(=O)C(F)(F)F)CC1CCCO1)C(F)(F)F (configuration not stated) here?
A: inactive

Q: For C=CCNC(=O)C(C#N)c1nc2ccccc2nc1N1CCCCCC1 (configuration not stated), which Potency is on record?
A: inconclusive: 35.5 µM [quencher, side channel, single point]

Q: O=C(NNc1nc2cc3c(cc2s1)OCO3)c1cccc(F)c1 was tested. Which Potency did it give?
A: inconclusive: 50.1 µM [inhibitor, single point]

Q: With CC(C)OC(=O)c1cc(NC(=S)Nc2ccc([N+](=O)[O-])cc2)cc(C(=O)OC(C)C)c1 as the molecule, how does the Potency read?
A: inconclusive: 39.8 µM [quencher, single point]

Q: With Cc1cc(SCC(=O)c2cccs2)n2nc(C)c(-c3ccc(Cl)cc3)c2n1 as the molecule, how does the Potency read?
A: inconclusive: 35.5 µM [fluorescent, side channel, single point]

Q: CCOC(=O)c1nc2cc3n(c(CC(C)C)c-2c1C)CC(C)=C3C was tested. Which Potency did it give?
A: inconclusive: 35.5 µM [quencher, side channel, single point]

Q: For CCOC(=O)c1ccc([N+](=O)[O-])c(CS(=O)(=O)c2ccc(Cl)cc2)c1, which Potency is on record?
A: inconclusive: 17.8 µM [quencher, partial curve]

Q: How did the Potency turn out when CN(C)/C=C1\NC(=S)N(c2ccccc2)C1=O was run?
A: inconclusive: 15.8 µM [quencher, side channel, partial curve]

Q: For COc1ccc(N=Nc2ccc(N)nc2N)cc1, which Potency is on record?
A: inconclusive: 12.6 µM [quencher, side channel, partial curve]

Q: How did the Potency turn out when O=C(OCC(=O)N1CCCC1)c1cc([N+](=O)[O-])ccc1Cl was run?
A: inconclusive: 11.2 µM [quencher, side channel, partial curve]

Q: For CC(C)C(C)NC(=O)COc1ccc([N+](=O)[O-])cc1Cl (configuration not stated), which Potency is on record?
A: inconclusive: 12.6 µM [quencher, side channel, partial curve]

Q: Cc1ccsc1/C=N\NC(=O)CC(=O)NCc1ccccc1 was tested. Which Potency did it give?
A: inconclusive: 31.6 µM [quencher, side channel, single point]

Q: Which Potency does the source give for CCOc1ccccc1NC(=O)CCSc1nc2n[nH]c(C)c2c(=N)n1-c1ccccc1Cl here?
A: inconclusive: 14.1 µM [fluorescent, side channel, partial curve]

Q: For Cc1c(Cl)cccc1NC(=S)NCCc1ccc(S(N)(=O)=O)cc1, which Potency is on record?
A: inactive

Q: How did the Potency turn out when COc1ccc(C(=O)NNC(=O)C(=O)Nc2ccc(C)c(Cl)c2)cc1 was run?
A: inactive

Q: Which Potency does the source give for CC(=O)c1ccc(N2CCN(c3ccccc3O)CC2)c([N+](=O)[O-])c1 here?
A: inconclusive: 25.1 µM [quencher, single point]

Q: For O=C1c2ccccc2C(=O)N1Cc1nc(-c2ccccn2)no1, which Potency is on record?
A: inconclusive: 31.6 µM [quencher, side channel, partial curve]

Q: O=C(CSc1ncnc2c1oc1ccccc12)NCc1ccc(F)cc1 was tested. Which Potency did it give?
A: inconclusive: 39.8 µM [fluorescent, side channel, single point]

Q: With NC(=O)c1nsc(C(=O)N(Cc2ccco2)C(C(=O)NCC2CCCO2)c2ccc(O)cc2)c1N (configuration not stated) as the molecule, how does the Potency read?
A: inconclusive: 31.6 µM [quencher, side channel, partial curve]

Q: For NC(=O)CC[C@@H]1NC(=O)[C@@H]2CCCN2C(=O)c2cc([N+](=O)[O-])cc(I)c2NCCC[C@@H](C(=O)NC(CC(=O)O)C(N)=O)NC1=O (some centres not stated), which Potency is on record?
A: inconclusive: 25.1 µM [quencher, side channel, partial curve, poor fit]

Q: Cc1ccccc1CN1N=C(/C=C/c2ccccc2)CCC1=O was tested. Which Potency did it give?
A: inconclusive: 39.8 µM [quencher, side channel, partial curve]

Q: For COc1cc2c(cc1NC(=O)COC(=O)c1ccc(C(C)(C)C)cc1)oc1ccccc12, which Potency is on record?
A: inactive

Q: How did the Potency turn out when Cc1c(Cl)cccc1NC(=O)c1ccc(OCC(=O)NCc2ccccc2)cc1 was run?
A: inconclusive: 2.51 µM [fluorescent, side channel, partial curve]

Q: Which Potency does the source give for CCOC(=O)c1cc2n(c1C)-c1ccccc1C2=O here?
A: inconclusive: 2.82 µM [quencher, side channel, full curve]

Q: For O=C(Nc1cccc([N+](=O)[O-])c1)c1ccc2c(c1)OCO2, which Potency is on record?
A: inconclusive: 17.8 µM [quencher, side channel, single point]

Q: With O=C1NN(c2ccccc2)C(=O)/C1=C/c1coc2ccccc2c1=O as the molecule, how does the Potency read?
A: inactive

Q: Cc1cccc(-n2ccc(=O)c(C(=O)Nc3ccc(S(=O)(=O)N4CCOCC4)cc3)n2)c1 was tested. Which Potency did it give?
A: inconclusive: 2.82 µM [quencher, side channel, full curve, poor fit]

Q: CC(=O)c1ccc(NC(=O)COC(=O)CCN2C(=O)c3cccc([N+](=O)[O-])c3C2=O)cc1 was tested. Which Potency did it give?
A: inconclusive: 11.2 µM [quencher, side channel, partial curve]

Q: How did the Potency turn out when O=C(O)CNS(=O)(=O)c1cc(Cl)c(Cl)cc1Cl was run?
A: inconclusive: 20 µM [quencher, side channel, single point]

Q: Which Potency does the source give for c1ccc(-c2cn3c4c(sc3n2)CCCC4)cc1 here?
A: inactive

Q: For O=C(COC(=O)c1ccc(Cl)c([N+](=O)[O-])c1)NC1CCCC1, which Potency is on record?
A: inconclusive: 14.1 µM [quencher, side channel, partial curve]
